# ± gives the standard deviation of the averaged measurements. In all, about 33,000 sequences were measured (“E-score (dimensionless, -0.5 to 0.5)”: median about -0.046, highest 2% from about 0.36 on). Some of the results follow.
# Test system: T1, SpTbr T-box DNA-binding domain (GST fusion)
# T1 sequence: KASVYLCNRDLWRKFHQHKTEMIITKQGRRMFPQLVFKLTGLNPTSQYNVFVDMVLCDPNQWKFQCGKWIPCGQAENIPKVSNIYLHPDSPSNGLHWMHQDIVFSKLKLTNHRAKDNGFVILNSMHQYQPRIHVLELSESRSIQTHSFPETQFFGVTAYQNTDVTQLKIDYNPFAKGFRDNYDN
# Experiment: PBM E-score of 8-mer (E-score (dimensionless, -0.5 to 0.5)); Tbr is Tbrain of the sea star Patiria miniata (Pm) or the sea urchin Strongylocentrotus purpuratus (Sp); higher = stronger binding preference; most listed sequences are background and not binding sites
# Conditions: the construct has about 5 more residues each side
# Procedure, shortened: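 Primer extension turned Universal Agilent oligonucleotide arrays double-stranded. They were incubated with 200 nM protein in PBS (pH 7.5); the protein was a GST-fused Tbr T-box DNA-binding domain expressed in BL21 E. coli at 20 °C and purified on glutathione. Every ungapped 8-mer was scored from the scanned, quantified probe intensities, and the Universal PBM Analysis Suite gave each an enrichment E-score averaged over duplicate arrays.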
row,Sequence,PBM E-score of 8-mer
1,TACTAGTA,-0.239 ± 0.0066
2,ATATTACC,-0.0985 ± 0.0069
3,GAGTTCGA,-0.139 ± 0.071
4,AATCGGGG,-0.0949 ± 0.017
5,AGAAGAAA,-0.151 ± 0.011
6,AATATAGC,0.0183 ± 0.026
7,CGCGGGGC,-0.0601 ± 0.11
8,GCTAGCAA,0.162 ± 0.021
9,CAGCCGCC,-0.0473 ± 0.0081
10,ACTAGAGC,0.0656 ± 0.034
11,ACATAGGA,-0.1859 ± 0.00088
12,GCTCTCGA,0.0727 ± 0.01
13,CCGACTCA,-0.0198 ± 0.019
14,CAAGAGTA,-0.214 ± 0.013
15,GAGACCAC,-0.126 ± 0.036
16,CGATCGGA,-0.24 ± 0.025
17,AGTTTGTA,-0.151 ± 0.011
18,CGATTACG,-0.0587 ± 0.08
19,ATATCGAC,0.0956 ± 0.0078
20,CGTATTCA,0.13 ± 0.05
21,ATACCAGC,-0.0597 ± 0.0054
22,AGGTTGAT,-0.0456 ± 0.014
23,ATTTGAAG,-0.272 ± 0.061
24,GACCTACC,-0.129 ± 0.006
25,TATAGAGA,-0.258 ± 0.068

row,Sequence,PBM E-score of 8-mer
1,CGCGACTC,0.233 ± 0.018
2,CGTGACAC,0.38 ± 0.015
3,AGCAGATG,-0.0124 ± 0.045
4,CCATTTCA,-0.22 ± 0.089
5,AATCGAAA,-0.0861 ± 0.034
6,CTCATGTA,-0.0391 ± 0.0025
7,GCAACGAC,0.0844 ± 0.037
8,AAAGCGGG,-0.152 ± 0.066
9,GACTCATC,-0.261 ± 0.016
10,CAGGTGCC,0.388 ± 0.034
11,ACGCACGG,0.0487 ± 0.026
12,ATTCGGTA,-0.259 ± 0.0054
13,GTCGATAA,0.18 ± 0.03
14,AGATGGAC,-0.205 ± 0.039
15,AAAGAAGT,0.0111 ± 0.089
16,ACTGAGCA,-0.0925 ± 0.081
17,CAACTTGA,0.123 ± 0.077
18,ATGGGGGA,-0.214 ± 0.037
19,GAAGATTA,-0.0119 ± 0.017
20,AACGAATT,-0.00591 ± 0.12
21,TCATCACA,0.3345 ± 0.0029
22,ACACAGCT,0.167 ± 0.058
23,TAGGTGCA,0.12 ± 0.033
24,CCAACAAA,0.137 ± 0.064
25,AAACCTAA,-0.102 ± 0.035

row,Sequence,PBM E-score of 8-mer
1,ACAGGAAG,-0.0342 ± 0.044
2,GAAGAACA,-0.233 ± 0.015
3,GCTAACCC,0.04 ± 0.097
4,CCCAGCAA,-0.0103 ± 0.021
5,CGAGAGGA,0.1 ± 0.013
6,ATAGCTAG,-0.102 ± 0.023
7,GTCAAGGA,-0.0692 ± 0.085
8,CATTGCAG,-0.0289 ± 0.057
9,CGACGGTA,-0.0651 ± 0.0018
10,AGTTGACC,-0.106 ± 0.098
11,CCAGAGAC,0.00323 ± 0.0032
12,GATTTCTA,-0.00464 ± 0.057
13,ACGAATGG,0.0767 ± 0.013
14,AATGCGCT,-0.187 ± 0.032
15,CAACGCTA,0.0932 ± 0.022
16,CTTTGGGC,-0.279 ± 0.041
17,CGCAACCA,-0.00136 ± 0.0027
18,ATTCGGAC,-0.275 ± 0.059
19,GGCACCAA,0.163 ± 0.017
20,GATGTAGA,-0.161 ± 0.016
21,AACGCAAC,-0.0802 ± 0.023
22,ACTAATAT,-0.126 ± 0.064
23,ATCGGTCG,0.02 ± 0.022
24,GGTCTACA,-0.0571 ± 0.025
25,AAAGCTCG,-0.183 ± 0.062

row,Sequence,PBM E-score of 8-mer
1,GTAAATGA,-0.141 ± 0.0089
2,AATTACAT,-0.013 ± 0.13
3,CGGGACAA,-0.225 ± 0.06
4,CATATGGC,-0.221 ± 0.019
5,ACATGAAA,-0.0431 ± 0.11
6,CAGATGGC,-0.0733 ± 0.047
7,GGTCACTA,0.126 ± 0.039
8,GTTGGTGA,0.115 ± 0.0023
9,ATTTGAGG,-0.158 ± 0.12
10,CAGGGAAC,-0.0919 ± 0.034
11,AAGAACCA,-0.116 ± 0.0052
12,AATACGCT,-0.02 ± 0.051
13,AATTCAGT,-0.0889 ± 0.013
14,AAATGTGC,0.151 ± 0.076
15,TGCGACCA,0.201 ± 0.054
16,GGCTCCGA,-0.15 ± 0.066
17,CGTGCAGA,-0.165 ± 0.063
18,CCGTGTGA,0.381 ± 0.017
19,TCTCGGAA,-0.22 ± 0.013
20,AATTAAGG,-0.139 ± 0.011
21,CATTCGAG,-0.142 ± 0.034
22,AGCCAAAG,-0.209 ± 0.037
23,AGCGTGCG,0.327 ± 0.052
24,CCATATAA,-0.221 ± 0.022
25,AATACGAA,-0.203 ± 0.023

row,Sequence,PBM E-score of 8-mer
1,CATTTAGC,-0.0123 ± 0.032
2,GTAGAAGA,-0.319 ± 0.029
3,CCGCCCTA,-0.2293 ± 0.00091
4,GAAGAGAC,-0.292 ± 0.031
5,AACAGCTA,0.232 ± 0.018
6,CACAACCC,0.176 ± 0.013
7,CACATAAG,0.144 ± 0.027
8,GCAAAGGC,-0.169 ± 0.073
9,CACCGGGA,0.142 ± 0.033
10,AGTATACT,-0.224 ± 0.08
11,ATTAGAAA,-0.188 ± 0.048
12,ACGCCGAT,-0.0232 ± 0.022
13,AGCCAACT,-0.173 ± 0.045
14,GAGCGTAA,-0.197 ± 0.051
15,GGAAGACC,-0.0376 ± 0.01
16,AACTGATT,-0.227 ± 0.019
17,AGCGTAAC,-0.00288 ± 0.013
18,GACGAGTC,-0.101 ± 0.024
19,CCGTTACG,-0.121 ± 0.042
20,AAAGTTGG,-0.0293 ± 0.026
21,TAATGATA,-0.111 ± 0.0097
22,GGTGCCAC,0.368 ± 0.0043
23,AAAATGAT,-0.0776 ± 0.058
24,CTTTCCCA,0.0635 ± 0.052
25,ACGCTCTA,-0.069 ± 0.031

row,Sequence,PBM E-score of 8-mer
1,CGCTGCGA,0.119 ± 0.035
2,AGCGCAAG,-0.0521 ± 0.018
3,CTCCGTCA,-0.00211 ± 0.014
4,AGTGGGTC,-0.0827 ± 0.061
5,AATCTGCT,-0.12 ± 0.082
6,AGGTTGCC,-0.121 ± 0.097
7,AGGCACCT,0.148 ± 0.033
8,CCTGGCCC,-0.154 ± 0.035
9,CTCAATCA,0.0409 ± 0.039
10,CTAAGTAA,-0.175 ± 0.011
11,ACGTAACG,-0.0714 ± 0.023
12,GACCGTGA,0.123 ± 0.029
13,AAAGCAAA,0.00628 ± 0.091
14,CACCCATC,0.0856 ± 0.027
15,CTGTGGCC,-0.164 ± 0.0082
16,AGCTGTTC,0.029 ± 0.014
17,AAACAGGT,0.0685 ± 0.011
18,CAATTAAG,-0.0947 ± 0.083
19,TCAACTCA,-0.0438 ± 0.019
20,GAGCCAAA,-0.0573 ± 0.016
21,AATCAGGT,0.132 ± 0.01
22,AAGTTCAA,0.0375 ± 0.055
23,AATCTCCC,-0.157 ± 0.07
24,AGCTACCA,-0.0691 ± 0.0051
25,CTATAAAG,-0.0624 ± 0.0033

row,Sequence,PBM E-score of 8-mer
1,GATTTGCC,-0.0903 ± 0.013
2,CCCTTTGA,-0.0585 ± 0.032
3,GCCGCACA,0.0689 ± 0.027
4,ATATAACC,-0.0722 ± 0.02
5,AAACCTAG,0.0536 ± 0.035
6,GCAGCCCA,-0.122 ± 0.052
7,AGTTTGGA,-0.256 ± 0.0047
8,AAAATATA,-0.312 ± 0.0098
9,ATGCAAGG,-0.147 ± 0.024
10,GCCAGGAC,-0.0301 ± 0.041
11,TAGGGACA,-0.221 ± 0.04
12,GGAAGAAA,-0.173 ± 0.027
13,AAGAAGGG,-0.235 ± 0.083
14,GAAGCGCA,0.0142 ± 0.0009
15,GCCTCTAC,0.049 ± 0.06
16,CCAGCAGC,-0.198 ± 0.01
17,AGGGTCAA,-0.246 ± 0.028
18,ATAAGTTA,-0.179 ± 0.029
19,GGTAATAC,-0.178 ± 0.027
20,AGCCCTTA,-0.188 ± 0.019
21,GTCGTAAC,0.12 ± 0.1
22,ACCGATAA,0.107 ± 0.022
23,ACTAGCAG,-0.0848 ± 0.034
24,CTGTAGTC,-0.274 ± 0.033
25,AGCTCTAC,-0.137 ± 0.0066

row,Sequence,PBM E-score of 8-mer
1,ATACTAAG,-0.152 ± 0.015
2,CCTTGCCA,-0.0463 ± 0.044
3,GAATTCCC,0.0038 ± 0.051
4,CCGAGAAA,0.0462 ± 0.0023
5,ATGCTGCC,-0.2795 ± 0.0026
6,CTCAGTCC,-0.198 ± 0.026
7,CAACCATA,-0.145 ± 0.0046
8,CGCGTGCA,0.162 ± 0.046
9,CGAATCAA,0.0996 ± 0.026
10,GCGTAAGC,0.142 ± 0.023
11,CCGTGTAG,-0.0283 ± 0.025
12,CAGCTATA,-0.0219 ± 0.0047
13,ATGCATAG,-0.197 ± 0.038
14,CGCTAAGA,0.198 ± 0.039
15,GGGAGATA,-0.0554 ± 0.076
16,CCGATCGC,0.16 ± 0.16
17,AGAGAATC,0.0192 ± 0.038
18,CGAACACA,0.248 ± 0.048
19,TCATCGAA,-0.138 ± 0.11
20,AGTATGAT,-0.0275 ± 0.072
21,CGCGGTTA,0.0483 ± 0.083
22,ACGTTTTG,0.0314 ± 0.068
23,GGCGAGCA,-0.0508 ± 0.079
24,GTCTAAAA,0.0084 ± 0.061
25,CCGGTGAG,0.089 ± 0.024

row,Sequence,PBM E-score of 8-mer
1,GGATTGCA,-0.101 ± 0.0032
2,AAAGGTGA,0.316 ± 0.0022
3,AGAAAAGG,-0.0361 ± 0.097
4,TACATACA,-0.23353 ± 6.4e-05
5,GATGATAC,-0.136 ± 0.012
6,ATAAACGG,-0.106 ± 0.039
7,GCTAATAA,-0.103 ± 0.039
8,GCCCGCGC,0.00019 ± 0.13
9,AATCGTCA,0.195 ± 0.01
10,CAGGCAGG,-0.128 ± 0.06
11,CACCCCTG,0.269 ± 0.009
12,ACCGTAGG,-0.113 ± 0.038
13,AATCGTGA,0.211 ± 0.027
14,CGCGTTAA,0.229 ± 0.061
15,CGGCGACG,-0.0181 ± 0.067
16,CCTATCCG,-0.253 ± 0.0099
17,CCTGTACG,-0.15 ± 0.0064
18,AGTGTCGG,0.36 ± 0.015
19,CACGTCGG,0.256 ± 0.076

# From the supplement of paper PMC4166925
